Measurements as given in the antibiotic and cytotoxicity screens of Wong et al. (2023).
The other results are listed elsewhere or left out.

What was measured:
HSkMC = human skeletal muscle cells; test: cytotoxicity call (relative viability < 0.9); conditions: 10 µM
HepG2 = test: cytotoxicity call (relative viability < 0.9); conditions: 10 µM
S. aureus RN4220 = test: growth inhibition call (relative growth <= 0.2); conditions: 50 µM

| Structure (SMILES) | cytotoxicity call (HSkMC) | cytotoxicity call (HepG2) | growth inhibition call (S. aureus RN4220) |
| --- | --- | --- | --- |
| CN(C)CC#Cc1ccc([C@H]2[C@H]3CN(C(=O)c4cccnc4)CC(=O)N3[C@H]2CO)cc1 | inactive | inactive | inactive |
| C[C@@H]1CCCCO[C@@H](CN(C)C(=O)NC2CCCCC2)[C@@H](C)CN([C@H](C)CO)C(=O)c2cc(NC(=O)Nc3ccc(C(F)(F)F)cc3)ccc2O1 | active | active | inactive |
| C[C@H]1[C@H](NC(=O)/C(=N\OC(C)(C)C(=O)O)c2csc(N)n2)C(=O)N1S(=O)(=O)O | inactive | inactive | inactive |
| CCS(=O)(=O)Nc1ccc2c(c1)C(=O)N(C)[C@H]1CC[C@@H](CC(=O)NCc3ccc(OC)cc3)O[C@@H]1CO2 | inactive | inactive | inactive |
| Cc1nccnc1N1CCCCC1.O=S(=O)(O)O | inactive | inactive | inactive |
| C[C@@H]1CN([C@@H](C)CO)S(=O)(=O)c2ccc(Br)cc2O[C@@H]1CN(C)CC1CCOCC1 | inactive | inactive | inactive |
| C[C@@H]1CN([C@H](C)CO)C(=O)c2cc(NC(=O)Nc3ccc4c(c3)OCO4)ccc2O[C@@H]1CN(C)S(=O)(=O)c1cn(C)cn1 | inactive | inactive | inactive |
| C=c1[nH]/c(=C/c2cccnc2)c(=O)o1 | inactive | inactive | inactive |
| O=C(C[C@@H]1CC[C@H]2[C@@H](COC[C@@H](O)CN2S(=O)(=O)c2cccc(Cl)c2)O1)NCc1ccc2c(c1)OCO2 | inactive | inactive | inactive |
| C[C@H](CO)N1C[C@H](C)[C@@H](CN(C)Cc2ccc(Oc3ccccc3)cc2)Oc2ccc(NC(=O)C3CCCCC3)cc2CC1=O | inactive | inactive | inactive |
| C[C@H](CO)N1C[C@H](C)[C@H](CN(C)S(=O)(=O)c2ccccc2)OCCCC[C@H](C)Oc2ccc(NC(=O)Nc3ccc(C(F)(F)F)cc3)cc2C1=O | inactive | inactive | inactive |
| NC(CO)(CO)CO | inactive | inactive | inactive |
| C[C@@H]1CCCCO[C@@H](CN(C)S(=O)(=O)c2ccc(Cl)cc2)[C@@H](C)CN([C@H](C)CO)C(=O)c2cc(NC(=O)CCCCCC(=O)Nc3ccccc3N)ccc2O1 | inactive | inactive | inactive |
| C[C@@H]1CCCCO[C@@H](CN(C)C(=O)c2ccccc2)[C@H](C)CN([C@H](C)CO)C(=O)c2cc(NC(=O)NC3CCCCC3)ccc2O1 | inactive | inactive | inactive |
| CC(=O)O[C@H]1[C@H](Oc2cc(O)cc(O)c2C(=O)c2cccc(O)c2)O[C@H](CO)[C@@H](OC(=O)c2ccccc2)[C@@H]1O | inactive | inactive | inactive |
| C[C@@H]1CCCCO[C@H](CN(C)S(=O)(=O)c2cn(C)cn2)[C@@H](C)CN([C@@H](C)CO)C(=O)c2cc(NS(=O)(=O)c3cccs3)ccc2O1 | inactive | inactive | inactive |
| C[C@@H]1CCCCO[C@H](CN(C)S(=O)(=O)c2ccc(F)cc2)[C@@H](C)CN([C@H](C)CO)C(=O)c2cc(NC(=O)NC3CCCCC3)ccc2O1 | inactive | active | inactive |
| CNC(=O)c1ccc(N)cc1 | inactive | inactive | inactive |
| Cc1noc(C)c1NC(=O)N(C)C[C@H]1Oc2ccc(NC(=O)C3CC3)cc2C(=O)N([C@@H](C)CO)C[C@H]1C | inactive | inactive | inactive |
| COc1ccc(NC(=O)N(C)C[C@@H]2OCCCC[C@@H](C)Oc3ccc(NC(=O)NC4CCCCC4)cc3C(=O)N([C@@H](C)CO)C[C@@H]2C)cc1 | inactive | inactive | inactive |
| COc1ccccc1-c1ccc2c(c1)O[C@H](CN(C)S(=O)(=O)c1ccccc1)[C@H](C)CN([C@H](C)CO)S2(=O)=O | inactive | inactive | inactive |
| C[C@@H]1CN([C@H](C)CO)C(=O)c2cc(NC(=O)Cc3ccccc3)ccc2O[C@@H](C)CCCCO[C@H]1CN(C)C(=O)NC1CCCCC1 | inactive | inactive | inactive |
| C[C@@H]1CN([C@H](C)CO)C(=O)c2cc(/C=C/c3ccccc3)cnc2O[C@H]1CN(C)C(=O)c1cnccn1 | inactive | inactive | inactive |
| C[C@@H]1CN([C@H](C)CO)C(=O)Cc2cc(NC(=O)Nc3ccc(C(F)(F)F)cc3)ccc2O[C@@H]1CN(C)C(=O)Nc1ccc2c(c1)OCO2 | inactive | active | inactive |
| O=C(C[C@H]1C[C@H]2c3cc(NC(=O)C4CCOCC4)ccc3O[C@H]2[C@@H](CO)O1)NCc1ccc2c(c1)OCO2 | inactive | inactive | inactive |
| CC(C)CC#Cc1cnc2c(c1)C(=O)N([C@H](C)CO)C[C@H](C)[C@H](CN(C)S(=O)(=O)c1cccs1)O2 | inactive | inactive | inactive |
| C[C@H]1CN([C@@H](C)CO)C(=O)c2cc(NC(=O)CCC(F)(F)F)ccc2O[C@@H]1CN(C)Cc1ccc(Oc2ccccc2)cc1 | inactive | inactive | inactive |

| Structure (SMILES) | cytotoxicity call (HSkMC) | cytotoxicity call (HepG2) | growth inhibition call (S. aureus RN4220) |
| --- | --- | --- | --- |
| COc1ccc2c3c(n(c2c1)C)[C@@H](CO)N(C[C@]13CN(CC2CCOCC2)C1)C(=O)c1ccc(cc1)F | inactive | inactive | inactive |
| CNC(=O)C[C@H]1CC[C@H]2[C@@H](COc3ccc(NC(=O)CN(C)C)cc3C(=O)N2C)O1 | inactive | inactive | inactive |
| C[C@@H]1CN([C@@H](C)CO)C(=O)c2c(c3ccccc3n2C)-c2ccccc2CO[C@@H]1CN(C)Cc1ccc(C(F)(F)F)cc1 | inactive | inactive | inactive |
| C[C@@H]1CN([C@H](C)CO)C(=O)c2cc(NS(=O)(=O)c3ccccc3)ccc2O[C@@H]1CN(C)Cc1ccc(-c2ccccc2)cc1 | inactive | inactive | inactive |
| C[C@@H]1CN([C@H](C)CO)C(=O)c2cc(N(C)C)ccc2O[C@H]1CN(C)S(=O)(=O)c1ccc(Cl)cc1 | inactive | inactive | inactive |
| C[C@H]1CN([C@@H](C)CO)C(=O)c2cccc(NC(=O)c3ccc(-c4nccs4)cc3)c2O[C@@H]1CN(C)Cc1ccc(Cl)c(Cl)c1 | active | inactive | inactive |
| COc1ccc(S(=O)(=O)Nc2ccc3c(c2)CC(=O)N([C@@H](C)CO)C[C@H](C)[C@@H](CN(C)C(=O)NC(C)C)O3)cc1 | inactive | inactive | inactive |
| C[C@H](CO)N1C[C@H](C)[C@@H](CN(C)S(=O)(=O)c2ccc(F)cc2)Oc2ccc(NC(=O)c3ccncc3)cc2CC1=O | inactive | inactive | inactive |
| COc1ccc(C#Cc2cnc3c(c2)C(=O)N([C@H](C)CO)C[C@H](C)[C@H](CN(C)C(=O)Nc2cccc4ccccc24)O3)cc1OC | inactive | inactive | inactive |
| COCCOC(=O)N1C(=O)[C@@]2(c3ccccc31)[C@H](c1ccccc1OCCO)N1[C@H](c3ccccc3)[C@H](c3ccccc3)OC(=O)[C@H]1[C@@H]2C(=O)N1CCc2cc(OC)c(OC)cc2C1 | inactive | inactive | inactive |
| CN1CCN(C(=O)C[C@H]2CC[C@H]3[C@@H](COc4ccc(NC(=O)C5CCOCC5)cc4C(=O)N3C)O2)CC1 | inactive | inactive | inactive |
| C[C@H]1CN([C@@H](C)CO)C(=O)Cc2cc(NC(=O)CCCCCC(=O)Nc3ccccc3N)ccc2O[C@H]1CN(C)Cc1ccc(-c2ccccc2)cc1 | inactive | active | inactive |
| C[C@@H]1CN([C@@H](C)CO)C(=O)c2cc(NS(C)(=O)=O)ccc2O[C@H]1CN(C)C(=O)Nc1ccc(C(F)(F)F)cc1 | inactive | inactive | inactive |
| COc1ccc(S(=O)(=O)N(C)C[C@@H]2Oc3ccc(NC(=O)c4ccncc4)cc3CC(=O)N([C@H](C)CO)C[C@@H]2C)cc1 | inactive | inactive | inactive |
| COC(=O)C[C@@H]1C(=O)NCCN1C(=O)NS(=O)(=O)c1ccc(C)cc1 | inactive | inactive | inactive |
| C[C@@H]1CN([C@H](C)CO)C(=O)c2cccc(NS(=O)(=O)c3ccccc3)c2O[C@H]1CN(C)Cc1ccc(Oc2ccccc2)cc1 | inactive | inactive | inactive |
| O=C(C[C@@H]1CC[C@H]2[C@@H](COC[C@@H](O)CN2C(=O)Nc2ccc(F)cc2)O1)NCCCN1CCOCC1 | inactive | inactive | inactive |
| COCCNC(=O)C[C@@H]1CC[C@@H]2[C@H](COC[C@H](O)CN2S(=O)(=O)c2ccccc2F)O1 | inactive | inactive | inactive |
| C[C@@H]1CN([C@H](C)CO)C(=O)c2cccc(NS(=O)(=O)c3cccs3)c2O[C@H]1CN(C)C(=O)Nc1cccc2ccccc12 | active | inactive | inactive |
| O=C1CN(S(=O)(=O)Cc2ccccc2)C[C@@H]2[C@@H](c3ccc(C#Cc4ccc(F)cc4)cc3)[C@H](CO)N12 | inactive | active | inactive |
| Cc1ccc(Nc2nc(-c3ccc(C)cc3)c(C)s2)cc1 | inactive | inactive | inactive |
| C[C@@H]1CCCCO[C@H](CN(C)S(C)(=O)=O)[C@H](C)CN([C@@H](C)CO)C(=O)c2cc(NC(=O)c3ccncc3)ccc2O1 | inactive | inactive | inactive |
| CC(C)NC(=O)Nc1ccc2c(c1)CC(=O)N([C@H](C)CO)C[C@H](C)[C@@H](CN(C)S(=O)(=O)c1ccc(Cl)cc1)O2 | inactive | inactive | inactive |
| O=C(O)Cn1nnnc1-c1ccsc1 | inactive | inactive | inactive |
| Cc1noc(C)c1S(=O)(=O)Nc1ccc2c(c1)C(=O)N([C@@H](C)CO)C[C@@H](C)[C@@H](CN(C)Cc1ccccc1)OCCCC[C@@H](C)O2 | inactive | inactive | inactive |
| C[C@H]1CN([C@@H](C)CO)C(=O)c2cc(NS(C)(=O)=O)ccc2O[C@@H]1CN(C)S(=O)(=O)c1ccc(Cl)cc1 | inactive | active | inactive |
| C[C@H](CO)N1C[C@H](C)[C@@H](CN(C)S(=O)(=O)c2cn(C)cn2)Oc2ccc(NC(=O)Nc3ccccc3)cc2C1=O | inactive | inactive | inactive |
